Experimental data taken from PMC10575725.
Results are given in words; binding and its absence hold for the method and conditions named. Binding seen in cells or lysates may run through a third protein. For some of these results: Sequences can lack the tags named with a protein.

Chains of the proteins cited; added tags and fusions are not shown. Residues count along the entry.
UniProt Q96P20: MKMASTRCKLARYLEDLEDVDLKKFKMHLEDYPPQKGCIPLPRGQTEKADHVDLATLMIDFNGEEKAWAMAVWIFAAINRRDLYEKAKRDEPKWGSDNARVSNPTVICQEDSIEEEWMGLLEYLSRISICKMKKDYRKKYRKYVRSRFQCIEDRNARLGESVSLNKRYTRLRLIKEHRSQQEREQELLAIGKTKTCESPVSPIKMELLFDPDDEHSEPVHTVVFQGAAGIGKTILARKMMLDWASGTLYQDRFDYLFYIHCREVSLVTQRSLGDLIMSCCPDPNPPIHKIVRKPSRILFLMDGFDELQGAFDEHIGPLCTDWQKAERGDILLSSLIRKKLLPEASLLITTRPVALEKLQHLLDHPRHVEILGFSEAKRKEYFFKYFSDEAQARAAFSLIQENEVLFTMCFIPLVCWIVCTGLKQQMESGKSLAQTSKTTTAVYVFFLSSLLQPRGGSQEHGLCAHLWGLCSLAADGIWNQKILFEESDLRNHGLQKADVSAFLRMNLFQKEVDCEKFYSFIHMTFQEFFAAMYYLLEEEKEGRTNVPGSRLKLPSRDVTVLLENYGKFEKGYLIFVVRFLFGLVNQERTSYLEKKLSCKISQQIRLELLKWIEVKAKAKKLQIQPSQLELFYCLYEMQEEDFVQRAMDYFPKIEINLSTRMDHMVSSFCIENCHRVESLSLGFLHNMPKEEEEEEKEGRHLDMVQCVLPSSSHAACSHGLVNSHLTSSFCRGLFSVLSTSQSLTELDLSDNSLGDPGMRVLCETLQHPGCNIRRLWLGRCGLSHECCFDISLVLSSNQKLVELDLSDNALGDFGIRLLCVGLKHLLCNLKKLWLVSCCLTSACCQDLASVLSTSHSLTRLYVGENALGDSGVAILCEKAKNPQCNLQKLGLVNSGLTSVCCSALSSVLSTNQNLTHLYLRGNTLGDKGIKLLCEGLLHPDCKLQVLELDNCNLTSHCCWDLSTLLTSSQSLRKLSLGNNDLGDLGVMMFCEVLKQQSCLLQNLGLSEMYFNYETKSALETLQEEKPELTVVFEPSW
UniProt Q9ULZ3: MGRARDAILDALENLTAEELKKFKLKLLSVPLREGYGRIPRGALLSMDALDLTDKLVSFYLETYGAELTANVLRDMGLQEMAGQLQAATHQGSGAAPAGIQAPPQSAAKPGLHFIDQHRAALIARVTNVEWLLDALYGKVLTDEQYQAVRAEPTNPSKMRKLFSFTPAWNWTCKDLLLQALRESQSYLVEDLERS
UniProt P29466: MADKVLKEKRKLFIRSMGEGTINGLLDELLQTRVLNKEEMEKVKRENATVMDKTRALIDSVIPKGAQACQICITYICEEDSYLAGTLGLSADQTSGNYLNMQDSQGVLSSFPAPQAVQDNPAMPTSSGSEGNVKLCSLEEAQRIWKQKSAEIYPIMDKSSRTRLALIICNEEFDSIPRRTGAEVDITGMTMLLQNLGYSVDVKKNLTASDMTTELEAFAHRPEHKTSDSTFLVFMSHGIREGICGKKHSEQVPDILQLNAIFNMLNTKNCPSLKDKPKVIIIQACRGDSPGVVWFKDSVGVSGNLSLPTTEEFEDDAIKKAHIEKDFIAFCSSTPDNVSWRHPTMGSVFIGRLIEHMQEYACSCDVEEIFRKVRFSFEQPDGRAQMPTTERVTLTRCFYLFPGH
UniProt Q9Y4X5: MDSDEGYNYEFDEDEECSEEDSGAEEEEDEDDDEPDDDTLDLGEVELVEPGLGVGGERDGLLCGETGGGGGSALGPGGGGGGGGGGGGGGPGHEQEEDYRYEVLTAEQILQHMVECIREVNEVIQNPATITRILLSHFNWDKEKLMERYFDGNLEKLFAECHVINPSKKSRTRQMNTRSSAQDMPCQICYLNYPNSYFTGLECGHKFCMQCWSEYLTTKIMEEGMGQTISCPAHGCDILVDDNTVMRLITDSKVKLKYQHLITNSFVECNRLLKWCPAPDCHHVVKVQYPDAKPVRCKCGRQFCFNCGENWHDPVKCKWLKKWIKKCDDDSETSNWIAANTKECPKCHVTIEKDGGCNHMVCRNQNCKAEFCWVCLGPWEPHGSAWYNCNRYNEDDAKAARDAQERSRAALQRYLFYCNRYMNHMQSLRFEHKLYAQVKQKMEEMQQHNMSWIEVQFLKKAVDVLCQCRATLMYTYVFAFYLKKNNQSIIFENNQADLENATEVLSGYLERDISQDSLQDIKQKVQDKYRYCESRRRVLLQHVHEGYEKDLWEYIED
UniProt P05161, residues 1-157: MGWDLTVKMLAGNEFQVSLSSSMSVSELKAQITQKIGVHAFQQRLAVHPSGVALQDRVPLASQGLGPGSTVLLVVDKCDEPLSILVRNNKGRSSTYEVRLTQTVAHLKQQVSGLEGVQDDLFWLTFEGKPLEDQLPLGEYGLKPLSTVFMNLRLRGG
UniProt Q8TDX7: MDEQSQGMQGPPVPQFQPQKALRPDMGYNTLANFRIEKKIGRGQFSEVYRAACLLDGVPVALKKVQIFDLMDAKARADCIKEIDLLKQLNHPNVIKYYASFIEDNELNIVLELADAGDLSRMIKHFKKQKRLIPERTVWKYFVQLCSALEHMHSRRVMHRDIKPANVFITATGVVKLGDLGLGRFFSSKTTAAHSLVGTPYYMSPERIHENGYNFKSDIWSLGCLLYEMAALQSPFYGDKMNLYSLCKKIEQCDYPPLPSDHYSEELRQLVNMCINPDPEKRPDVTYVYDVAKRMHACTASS
UniProt Q9ES74: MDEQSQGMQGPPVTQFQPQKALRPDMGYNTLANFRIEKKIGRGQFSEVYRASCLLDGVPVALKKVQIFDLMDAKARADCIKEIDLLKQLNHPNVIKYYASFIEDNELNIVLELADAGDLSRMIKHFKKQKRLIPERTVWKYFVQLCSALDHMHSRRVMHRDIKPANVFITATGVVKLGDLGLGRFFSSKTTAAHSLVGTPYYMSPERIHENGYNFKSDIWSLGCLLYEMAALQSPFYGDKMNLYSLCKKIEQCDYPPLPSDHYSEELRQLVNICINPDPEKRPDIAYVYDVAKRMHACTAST
UniProt Q9NPP4: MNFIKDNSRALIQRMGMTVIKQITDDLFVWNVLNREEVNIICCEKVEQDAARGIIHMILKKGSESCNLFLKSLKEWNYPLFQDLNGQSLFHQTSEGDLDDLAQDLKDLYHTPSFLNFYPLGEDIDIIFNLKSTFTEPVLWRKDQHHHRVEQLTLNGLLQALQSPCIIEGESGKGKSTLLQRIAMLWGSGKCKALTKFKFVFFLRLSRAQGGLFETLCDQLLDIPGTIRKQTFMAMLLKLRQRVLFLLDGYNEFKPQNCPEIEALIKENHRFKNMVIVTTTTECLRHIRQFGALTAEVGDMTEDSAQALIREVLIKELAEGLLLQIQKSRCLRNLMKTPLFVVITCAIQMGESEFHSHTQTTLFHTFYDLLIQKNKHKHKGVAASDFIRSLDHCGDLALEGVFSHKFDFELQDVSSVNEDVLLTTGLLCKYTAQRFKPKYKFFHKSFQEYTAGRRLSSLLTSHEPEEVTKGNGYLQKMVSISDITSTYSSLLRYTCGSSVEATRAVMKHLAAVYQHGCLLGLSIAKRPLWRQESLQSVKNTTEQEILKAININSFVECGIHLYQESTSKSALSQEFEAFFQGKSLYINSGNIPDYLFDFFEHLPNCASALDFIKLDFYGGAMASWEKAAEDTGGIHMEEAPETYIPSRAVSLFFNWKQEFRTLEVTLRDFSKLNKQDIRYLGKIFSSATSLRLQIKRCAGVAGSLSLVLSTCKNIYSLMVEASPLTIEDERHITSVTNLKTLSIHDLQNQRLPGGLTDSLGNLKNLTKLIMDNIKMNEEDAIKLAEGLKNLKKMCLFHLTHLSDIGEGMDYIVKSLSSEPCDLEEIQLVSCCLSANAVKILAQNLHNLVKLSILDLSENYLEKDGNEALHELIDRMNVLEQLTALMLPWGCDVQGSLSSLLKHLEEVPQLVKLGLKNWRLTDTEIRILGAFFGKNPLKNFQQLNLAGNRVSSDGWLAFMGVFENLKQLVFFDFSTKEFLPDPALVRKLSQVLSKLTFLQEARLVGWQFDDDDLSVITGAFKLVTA
UniProt Q3UP24: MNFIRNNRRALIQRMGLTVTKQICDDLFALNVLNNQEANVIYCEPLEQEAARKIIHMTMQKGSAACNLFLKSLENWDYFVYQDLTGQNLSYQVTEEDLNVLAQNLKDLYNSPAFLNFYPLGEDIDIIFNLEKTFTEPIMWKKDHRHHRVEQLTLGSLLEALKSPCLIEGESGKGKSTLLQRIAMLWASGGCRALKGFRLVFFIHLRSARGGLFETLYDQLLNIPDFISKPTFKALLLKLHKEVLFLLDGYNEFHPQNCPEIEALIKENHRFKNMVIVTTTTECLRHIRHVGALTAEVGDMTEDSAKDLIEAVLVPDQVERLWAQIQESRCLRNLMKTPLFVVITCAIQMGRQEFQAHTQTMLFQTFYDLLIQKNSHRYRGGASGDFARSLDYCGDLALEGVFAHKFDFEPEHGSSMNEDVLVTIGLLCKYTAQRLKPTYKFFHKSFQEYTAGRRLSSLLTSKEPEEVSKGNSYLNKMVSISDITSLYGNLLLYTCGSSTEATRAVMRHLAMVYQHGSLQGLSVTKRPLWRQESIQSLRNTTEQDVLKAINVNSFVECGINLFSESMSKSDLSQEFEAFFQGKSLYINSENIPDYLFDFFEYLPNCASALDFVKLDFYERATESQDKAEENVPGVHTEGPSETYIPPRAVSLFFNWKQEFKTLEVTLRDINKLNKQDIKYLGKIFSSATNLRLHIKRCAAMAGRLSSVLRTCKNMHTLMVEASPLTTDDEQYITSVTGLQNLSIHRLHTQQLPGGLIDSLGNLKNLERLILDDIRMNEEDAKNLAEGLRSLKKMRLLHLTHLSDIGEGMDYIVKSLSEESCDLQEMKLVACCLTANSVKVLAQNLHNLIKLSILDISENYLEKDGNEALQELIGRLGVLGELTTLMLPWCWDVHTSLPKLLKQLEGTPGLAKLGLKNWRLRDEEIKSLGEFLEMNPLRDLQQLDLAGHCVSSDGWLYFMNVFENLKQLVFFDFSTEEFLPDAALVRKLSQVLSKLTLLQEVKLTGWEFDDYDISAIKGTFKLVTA

Assays:
[1] = target: T1, HERC5, endogenous, THP-1 cells (human (endogenous in THP-1)) (UniProt Q9UII4); assay: co-IP; endogenous proteins in THP-1 cells, LPS-stimulated or LPS-primed and ATP-activated; IP buffer 1.0% NP-40, 50 mM Tris-HCl pH 7.4, 50 mM EDTA, 150 mM NaCl
T1 sequence: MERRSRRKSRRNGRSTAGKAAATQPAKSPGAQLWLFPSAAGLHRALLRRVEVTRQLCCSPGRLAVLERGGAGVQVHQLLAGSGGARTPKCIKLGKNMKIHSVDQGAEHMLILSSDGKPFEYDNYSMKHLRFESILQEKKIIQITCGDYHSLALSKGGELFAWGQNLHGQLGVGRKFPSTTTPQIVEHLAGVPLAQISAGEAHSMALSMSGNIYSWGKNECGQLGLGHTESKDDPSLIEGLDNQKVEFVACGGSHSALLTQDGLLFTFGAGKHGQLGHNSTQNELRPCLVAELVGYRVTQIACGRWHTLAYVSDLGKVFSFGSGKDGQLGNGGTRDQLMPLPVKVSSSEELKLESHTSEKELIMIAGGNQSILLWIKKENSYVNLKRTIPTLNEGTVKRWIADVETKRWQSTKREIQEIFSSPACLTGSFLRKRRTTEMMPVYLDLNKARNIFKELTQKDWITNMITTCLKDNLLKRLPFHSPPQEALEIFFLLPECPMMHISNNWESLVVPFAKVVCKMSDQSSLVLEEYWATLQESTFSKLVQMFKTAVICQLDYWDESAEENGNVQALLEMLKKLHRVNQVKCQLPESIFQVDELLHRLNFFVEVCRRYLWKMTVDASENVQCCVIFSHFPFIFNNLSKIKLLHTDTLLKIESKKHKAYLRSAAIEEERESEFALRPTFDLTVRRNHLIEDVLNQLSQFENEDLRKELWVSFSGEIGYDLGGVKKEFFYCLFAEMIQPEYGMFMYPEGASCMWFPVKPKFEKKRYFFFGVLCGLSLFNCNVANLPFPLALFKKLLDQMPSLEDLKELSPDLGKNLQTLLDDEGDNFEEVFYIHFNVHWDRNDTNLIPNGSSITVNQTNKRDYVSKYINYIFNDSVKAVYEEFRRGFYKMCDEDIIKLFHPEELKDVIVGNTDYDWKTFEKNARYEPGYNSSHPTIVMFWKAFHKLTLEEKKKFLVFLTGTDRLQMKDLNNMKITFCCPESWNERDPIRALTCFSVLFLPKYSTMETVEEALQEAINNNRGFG

[2] = target: Myc-tagged human NLRP3 (human) (UniProt Q96P20); assay: co-IP; HEK293T cells transfected with the indicated plasmids; IP buffer 1.0% NP-40, 50 mM Tris-HCl pH 7.4, 50 mM EDTA, 150 mM NaCl; protein G agarose with specific antibodies overnight
[3] = target: T2, FLAG-tagged human HERC5 (human) (UniProt Q9UII4); assay: as above
T2 sequence: T1 sequence

[4] = target: T3, HERC6 (HECT domain- and RCC1-like domain-containing protein 6), endogenous, mouse peritoneal macrophages (mouse (endogenous in peritoneal macrophages)) (UniProt F2Z461); assay: co-IP; endogenous proteins in mouse peritoneal macrophages, LPS-stimulated or LPS-primed and ATP-activated; IP buffer 1.0% NP-40, 50 mM Tris-HCl pH 7.4, 50 mM EDTA, 150 mM NaCl
T3 sequence: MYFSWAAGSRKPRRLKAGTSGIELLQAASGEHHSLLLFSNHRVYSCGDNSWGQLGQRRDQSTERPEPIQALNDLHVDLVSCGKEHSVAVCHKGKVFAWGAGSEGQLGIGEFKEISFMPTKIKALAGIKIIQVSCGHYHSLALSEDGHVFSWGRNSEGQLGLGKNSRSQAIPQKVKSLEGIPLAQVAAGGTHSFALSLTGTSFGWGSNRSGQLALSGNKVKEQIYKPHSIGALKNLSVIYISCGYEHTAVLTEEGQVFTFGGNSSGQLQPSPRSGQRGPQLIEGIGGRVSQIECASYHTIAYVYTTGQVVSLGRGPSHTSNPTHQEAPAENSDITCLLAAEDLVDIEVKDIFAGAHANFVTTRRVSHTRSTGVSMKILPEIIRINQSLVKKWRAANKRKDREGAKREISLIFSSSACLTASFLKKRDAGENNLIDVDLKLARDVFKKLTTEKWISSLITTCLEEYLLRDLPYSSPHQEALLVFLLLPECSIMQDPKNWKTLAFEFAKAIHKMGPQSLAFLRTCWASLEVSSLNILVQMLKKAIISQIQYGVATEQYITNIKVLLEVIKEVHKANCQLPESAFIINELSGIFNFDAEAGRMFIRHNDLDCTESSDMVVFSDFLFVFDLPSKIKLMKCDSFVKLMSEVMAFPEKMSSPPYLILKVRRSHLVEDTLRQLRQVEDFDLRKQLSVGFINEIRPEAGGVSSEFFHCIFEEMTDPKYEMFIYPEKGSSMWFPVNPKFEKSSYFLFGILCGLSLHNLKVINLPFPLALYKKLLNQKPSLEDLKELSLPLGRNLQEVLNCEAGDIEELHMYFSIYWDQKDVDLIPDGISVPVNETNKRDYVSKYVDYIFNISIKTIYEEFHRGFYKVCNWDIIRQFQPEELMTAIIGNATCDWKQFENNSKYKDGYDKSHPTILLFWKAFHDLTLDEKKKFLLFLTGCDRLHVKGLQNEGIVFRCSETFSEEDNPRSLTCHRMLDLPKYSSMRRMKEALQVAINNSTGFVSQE

How did the binding [1] turn out when “ASC, endogenous, THP-1 cells (from UniProt Q9ULZ3 1-195)” was run?
The binding was “no binding”.

Which binding [1] does the source give for “CASP1, endogenous, THP-1 cells (from UniProt P29466 1-404) (enzyme)” here?
Its binding is “no binding”.

Which binding [2] does the source give for “FLAG-tagged human ARIH1 (from UniProt Q9Y4X5 1-557) (enzyme)” here?
The binding was “no binding”.

“HA-tagged human ISG15 (from UniProt P05161 1-157)” was tested. Which binding [2] did it give?
The binding was “no binding”.

Which binding [3] does the source give for “HA-tagged human caspase-1 (from UniProt P29466 1-404) (enzyme)” here?
The binding was “no binding”.

For “Myc-tagged human ASC (from UniProt Q9ULZ3 1-195)”, which binding [3] is on record?
The binding was “no binding”.

“NEK7, endogenous, THP-1 cells (from UniProt Q8TDX7 1-302) (enzyme)” was tested. Which binding [1] did it give?
The binding was “no binding”.

“NEK7, endogenous, mouse peritoneal macrophages (from UniProt Q9ES74 1-302) (enzyme)” was tested. Which binding [4] did it give?
Its binding is “no binding”.

For “NLRC4, endogenous, THP-1 cells (from UniProt Q9NPP4 1-1024)”, which binding [1] is on record?
Its binding is “no binding”.

“NLRC4, endogenous, mouse peritoneal macrophages (from UniProt Q3UP24 1-1024)” was tested. Which binding [4] did it give?
The binding was “no binding”.
